Whole data set: some 110,000 compounds, median “z-score” near -0.1, cut for the highest 2% near 2. The list shows a part of the results.

This assay concerns the target Metabotropic glutamate receptor 8 (Rattus norvegicus) (UniProt P70579). The assay can be described thus: rat mGluR8 modulators via GIRK flux, primary screen, cell-based, thallium flux, HTS (AID 488969). The conditions noted are these: HEK293 rat mGluR8, GIRK (G protein-gated inwardly rectifying potassium channel) thallium flux, FluoZin2; at 10 µM; stronger effect = higher value; submaximal glutamate (EC20) added with thallium.
Chain of UniProt P70579 (P70579 whole entry, looked up): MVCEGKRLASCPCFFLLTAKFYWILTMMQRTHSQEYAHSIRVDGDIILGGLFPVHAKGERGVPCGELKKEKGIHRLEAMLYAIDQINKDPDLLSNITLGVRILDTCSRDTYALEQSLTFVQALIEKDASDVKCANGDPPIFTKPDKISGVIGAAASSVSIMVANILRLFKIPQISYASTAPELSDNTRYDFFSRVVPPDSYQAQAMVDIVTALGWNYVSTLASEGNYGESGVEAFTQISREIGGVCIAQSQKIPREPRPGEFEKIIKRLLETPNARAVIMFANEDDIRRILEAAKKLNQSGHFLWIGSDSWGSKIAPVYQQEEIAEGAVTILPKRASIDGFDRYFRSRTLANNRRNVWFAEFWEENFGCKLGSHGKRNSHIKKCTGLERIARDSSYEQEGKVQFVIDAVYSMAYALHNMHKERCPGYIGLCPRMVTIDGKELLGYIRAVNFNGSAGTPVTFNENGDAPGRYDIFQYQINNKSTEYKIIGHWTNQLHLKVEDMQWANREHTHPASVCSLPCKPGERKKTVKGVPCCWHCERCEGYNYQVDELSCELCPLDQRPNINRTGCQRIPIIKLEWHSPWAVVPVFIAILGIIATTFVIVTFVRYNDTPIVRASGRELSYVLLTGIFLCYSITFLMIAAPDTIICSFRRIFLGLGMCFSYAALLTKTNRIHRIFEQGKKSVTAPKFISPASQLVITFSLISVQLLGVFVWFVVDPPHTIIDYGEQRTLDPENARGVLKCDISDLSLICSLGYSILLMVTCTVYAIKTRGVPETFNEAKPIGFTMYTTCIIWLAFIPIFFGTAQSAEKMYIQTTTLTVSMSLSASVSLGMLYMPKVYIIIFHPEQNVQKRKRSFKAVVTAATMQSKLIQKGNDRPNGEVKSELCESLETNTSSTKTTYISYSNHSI
`O=C(NCc1ccco1)c1noc2c1CCCC2` registered a z-score of -0.00444.
Under `COC(=O)c1ccccc1Oc1c(F)c(F)nc(N2CCOCC2)c1F` stands -0.674; under `COc1cccc(Nc2c(F)c(F)c(F)c(F)c2C(=O)O)c1`, -0.326; under `CCOc1ccc(N(CC(=O)NC(C)(C)C)C(=O)c2ccco2)cc1`, -0.0245.
As for `CC1CCc2sc(C(=O)N=Nc3c(O)[nH]c4ccccc34)cc2C1` (centres undefined), the z-score was determined as 0.647.
`CCCCCOC(=O)CSc1nc2c(c(=O)[nH]c(=O)n2C)n1CCc1ccccc1`: the z-score is -0.0691.
`CC12CC3(C)CC(C)(C1)CC(C(=O)NC1=NCCS1)(C2)C3` showed a z-score of -0.201.
Turning to `C/C(=N\NS(=O)(=O)c1ccccc1)c1ccc2c(c1)OCCO2`, the z-score is -0.182.
`CCOC(=O)C1=C(C)NC2=C(C(=O)CCC2)C1c1cccnc1` (centres undefined): the z-score was -0.578.
For `O=C(C1CC1)N1CCN(c2nc3ccccc3s2)CC1`, the z-score is -0.217.
Under `CCc1nc(N2CCCCC2)c2oc3ccccc3c2n1` stands -0.161; under `Cc1cccc(C)c1NC(=O)CSc1ncnc2nc[nH]c12`, 0.206; under `CCSc1nc(O)cc(=O)n1-c1ccc(OC)cc1`, -0.15.
For `O=C(CSCc1ccc(Cl)cc1)N1CCCCC1`, the z-score was -0.424.
`Nc1nnc(SCc2ccc(Cl)cc2)s1` showed a z-score of -0.195.
`Cc1ccc(-c2noc(CNc3ccccc3)n2)cc1`: the z-score is -0.0581.
Under `CCn1cc(CNC(=O)c2cc(-c3ccccc3OC)nc3ccccc23)c(C)n1` stands -1.03; under `CCCc1nc2c(C)cc(C)cc2c(N)c1CC`, 0.451; under `O=[n+]1c2c(n([O-])c3cc(Br)ccc31)CCCC2`, 0.682.
With `CCCCc1nc(SCC(=O)Nc2cc(C)on2)n[nH]1` the figure was 0.784.
In turn, `O=C(CCCCn1c(=O)c2ccccc2n(CC(=O)NC2CCCC2)c1=O)NC1CCCC1` came in with a z-score of -0.424.
As to `Cc1ccc2cc(C(c3nnnn3Cc3ccccc3)N3CCc4ccccc43)c(=O)[nH]c2c1C` (centres undefined), the z-score was -0.173.
In turn, `COc1ccccc1C1CC(c2cccs2)=Nc2ccccc2S1` (centres undefined) came in with a z-score of 0.137.
`Cc1c(Cl)cccc1N(CC(=O)O)S(C)(=O)=O`: the z-score was -0.0663.
Under `Cc1cccc(C(=O)N2CCN(c3ncnc4c3cnn4-c3ccccc3)CC2)c1` stands -0.609; under `Cc1ccccc1NC(=O)c1onc2c1CCCC2`, 0.0884.
`CCN1CCn2c3c(c4cc(Cl)ccc42)CCCC31` (centres undefined) registered a z-score of 0.093.
For `CCS(=O)(=O)N1CCN(S(=O)(=O)c2ccccc2)CC1`, the z-score worked out at 0.446.
Turning to `Oc1ccccc1-c1nc(/C=C/c2ccccc2)nn1-c1ccccc1`, the z-score was -1.33.
Regarding `C=CCn1c(C)cc(C(=O)CSc2nc3ccccc3c(=O)[nH]2)c1C`, the z-score is -0.383.
The molecule `CC(NC(=O)/C=C/c1cnc2ccccc2n1)C12CC3CC(CC(C3)C1)C2` (centres undefined) yielded a z-score of -0.0601.
As to `COCCn1c(=S)[nH]c2cc(C(=O)NC(C)C)ccc2c1=O`, the z-score came to 0.0406.
Under `Cn1c(CC2C(=O)Nc3ccc(Br)cc32)nc2ccccc2c1=O` (centres undefined) stands -0.0123.
Under `Cc1ccc2[nH]c(=O)c(-c3noc(C(C)C)n3)cc2c1` stands -0.0854.
For `CCN(CC)C(=O)COC(=O)c1cc(-c2ccc(OC)cc2)nc2ccccc12`, the z-score is -0.353.
Under `C=CCN1C(=O)C(O)(CC(=O)c2ccc(N)cc2)c2ccccc21` (centres undefined) stands 0.37; under `CCN(CC)CCn1c(NCc2ccccn2)nc2ccccc21`, -0.287; under `O=C1NC(c2ccccc2)(C(F)(F)F)C(=O)N1Cc1cccnc1` (centres undefined), 0.162.
Turning to `CCNc1nc(NC(C)(C)C)nc(N(C#N)CC)n1`, the z-score is -0.694.
`N/C(Cc1ccccc1Sc1ccccc1)=N\O` came in with a z-score of 0.173.
In turn, `O=C(NC(=S)NCC1CCCO1)c1ccccc1Br` (centres undefined) gave a z-score of 1.6.
`O=C(N1CCN(Cc2ccccc2)CC1)C12CC3CC(CC(C3)C1)C2` had a z-score of 0.408.
Under `C=CCN(c1ccc(C(=O)NC(C)C)cc1)S(C)(=O)=O` stands 0.0929; under `Cc1ccc(C)c(-n2c(Cc3cc(=O)[nH]c(=O)[nH]3)nnc2SCC(=O)NCC2CCCO2)c1` (centres undefined), -0.284.
With `CC1(c2cc(C(F)(F)F)n3nc(C(=O)O)cc3n2)CC1`, the z-score was determined as 0.169.
Under `Cc1c(C(=O)N2CCCC2)sc(NC(=O)c2ccc(Cl)cc2)c1C#N` stands -0.559; under `COc1ccc(CCNC(=O)Cc2cc(=O)[nH]c(=O)[nH]2)cc1OC`, -0.0178; under `Cc1ccnc(SCCn2c(N3CCN(c4ccccc4)CC3)nc3c2c(=O)[nH]c(=O)n3C)n1`, 0.404.
Turning to `O=c1c2ccccc2c(/C=N/c2ncn[nH]2)c(O)n1Cc1ccccc1`, the z-score is -0.573.
In turn, `COc1ccc(OC(C)C(=O)N2CCN(c3ccccn3)CC2)cc1` (centres undefined) came in with a z-score of -0.0836.
`COc1cc(Cl)c(C)cc1NC(=O)CSc1nc2ccccc2o1`: the z-score is -0.0204.
`O=C(NC1CCN(C(=S)NCc2ccco2)CC1)C12CC3CC(CC(C3)C1)C2`: the z-score came out at 0.097.
With `CCn1cc(C(=O)NCc2ccco2)c(=O)c2cc(S(=O)(=O)N3CCC(C)CC3)ccc21` the figure was -0.818; with `Cc1ccc2nc(-c3ccco3)c(Nc3ccccc3)n2c1`, -0.0781.
`CCN(CC)c1ccc(/C=N/NC(=O)OC)c(O)c1` came in with a z-score of -0.291.
On to `COC(=O)[C@@H](NC(=O)Nc1ccc(OC)cc1)C(C)C`, for which the z-score was 1.12.
Take `Cc1nn(-c2ccccc2)c(C)c1/C=N\NS(=O)(=O)c1ccc(Cl)cc1`: the z-score stood at 0.0428.
`COc1ccc(N2C(=O)C3ON(C4SC(=S)N(C)C4(C)C)C(c4ccc(Cl)cc4)C3C2=O)cc1` (centres undefined) returned a z-score of 0.0166.
Under `CCOC(=O)c1ccc2nc(NC(=O)c3ccco3)sc2c1` stands -0.0743; under `N#Cc1cc(C(=O)c2cc(F)ccc2O)cn(-c2nccs2)c1=O`, -1.86; under `O=C(Nc1cccnc1)c1cccs1`, -0.52.
Consider `Cc1ccc(S(=O)(=O)NC(C)C(=O)Nc2ccc(C(N)=O)cc2)cc1` (centres undefined), for which the z-score is -0.0827.
With `Cn1c(Cc2cccc3ccccc23)nnc1SCC(=O)N1CCN(c2cccc(Cl)c2)CC1`, the z-score is -0.267.
Under `Nc1nnc(SC2CC(=O)N(c3ccccc3)C2=O)s1` (centres undefined) stands -0.766.
As for `CC(=O)c1c(C)nc(-c2ccccc2)nc1NC(=O)C(C)C`, the z-score was -0.0538.
On to `CCOc1cc(CNCCCN2CCOCC2)ccc1OCC(=O)Nc1cccc2ccccc12`, for which the z-score is -0.63.
For `Cc1ccc(C(=O)O/N=C/c2c(N3CCOCC3)n(C)c3ccccc23)cc1`, the z-score was -0.0587.
The molecule `Cc1nc2scc(-c3cccs3)c2c(=O)n1N` yielded a z-score of -0.0936.
In the case of `COc1ccc(C(C)NC(=O)c2ccccc2)cc1` (centres undefined), the z-score was 1.03.
The molecule `CCOc1ccccc1N1CCN(C(=O)C(Sc2ccccc2)c2ccccc2)CC1` (centres undefined) registered a z-score of -0.253.
In turn, `CCOCCCn1c(SCC(=O)/C(C#N)=C(\C)N)nc2ccccc2c1=O` showed a z-score of -0.243.
With `CC(=O)Nc1ccccc1/C=C/c1ccc2c(C)cc(C)c(O)c2n1`, the z-score is -0.0315.
Turning to `COC(=O)c1cc(Br)c(=O)n(Cc2ccc3c(c2)OCO3)c1`, the z-score turned out to be 0.208.
Consider `CCOc1ccc(OCC)c(NC(=O)C2CCN(S(=O)(=O)c3cccnc3)CC2)c1`, for which the z-score is -0.513.
As to `COc1ccccc1-c1nc2n(n1)C(c1ccc(Cl)cc1)C(C(N)=O)=C(C)N2` (centres undefined), the z-score was -1.08.
Under `COC(=O)c1c(NC(=O)c2ccccc2)sc(C(=O)c2ccccc2)c1C` stands 0.0535; under `CC(C)(O)C(=O)NN(C(=O)c1ccccc1)c1ccc2ccccc2c1`, 0.345.
In turn, `COc1ccc(OCCCC(=O)Nc2ccc(N3CCCCC3)cc2)cc1` registered a z-score of -0.122.
With `C/C(=C(\C#N)C(=O)NC1CCCCC1)N(C)C` the figure was 0.22; with `CCOc1cc(NC(=O)c2ccco2)c(OCC)cc1NC(=O)CCC(=O)NCc1cccnc1`, -0.676.
In the case of `Cc1nn(-c2ccc(Cl)cc2)c2sc(C(=O)c3c(N)n(C)c(=O)n(C)c3=O)cc12`, the z-score is -0.197.
Turning to `CCn1c(SCC(=O)c2c[nH]c3ccccc23)nnc1-c1cccs1`, the z-score is -0.0833.
Consider `Cc1ccc(C(=O)/C=C/Nc2ccc([N+](=O)[O-])cc2Br)cc1`, for which the z-score is -0.31.
`N=C1SCC(=O)N1c1nc(-c2ccccc2)cs1` showed a z-score of -0.104.
`CN(c1ccc(OCC(=O)OCC(=O)Nc2ccccc2F)cc1)S(=O)(=O)c1cccs1`: the z-score was -2.6.
`N#Cc1cnc2ncnn2c1-c1ccccc1`: the z-score stood at 0.145.
`O=c1c2c(C(F)(F)F)cc(C(F)(F)F)nc2[nH]n1-c1ccccc1` returned a z-score of -0.197.
As to `CCOC(=O)c1[nH]c2cc(OC)c(OC)cc2c1NC(=O)c1ccc2c(c1)OCO2`, the z-score is -0.191.
Take `COc1ccc(OCC(=O)Nc2ncc3c(n2)CC(C)(C)CC3=O)cc1`: the z-score was -1.03.
With `CCCCNC(=O)C1CC(c2ccccc2[N+](=O)[O-])=NO1` (centres undefined) the figure was -0.187.
`COc1ccc(OC(=O)c2cc(S(=O)(=O)N3CCCC3)ccc2Cl)cc1` gave a z-score of 0.41.
Consider `C/C(CCc1ccco1)=N/NC(=O)CCC(=O)Nc1ccc(Br)cc1`, for which the z-score stood at 0.8.
Consider `CCOC(=O)C1CCN(C(=O)CN(c2ccc3c(c2)OCO3)S(C)(=O)=O)CC1`, for which the z-score was -0.411.
The molecule `COc1ccc(OCC(O)Cn2ccnc2C)cc1` (centres undefined) yielded a z-score of 0.00945.
For `CC(=O)Nc1nonc1NC(=O)c1ccc(C(C)(C)C)cc1`, the z-score is -0.87.
With `CCc1c(C(=O)NNC(=S)NCC(C)C)csc1C` the figure was 0.611; with `Cc1cccc(NC(=O)CN(C)S(=O)(=O)c2cccc3cccnc23)c1`, 1.29.
With `CCOP(=O)(OCC)c1nc(-c2cccc3ccccc23)oc1N1CCOCC1` the figure was 0.0895.
The molecule `Cc1cccc(NCN2C(=O)c3ccncc3C2=O)n1` registered a z-score of -0.316.
Consider `Cn1c(CC(=O)Nc2ccccc2)nnc1SCCOc1ccccc1`, for which the z-score is -0.232.
`Cn1c(N2CCCCC2)cc(=O)n(C)c1=O` yielded a z-score of -0.301.
As to `Cc1ccc(C)c2[nH]c(=O)c(CN(CCN3CCOCC3)Cc3nnnn3CC3CCCO3)cc12` (centres undefined), the z-score is -0.292.
`COc1ccccc1Nc1nc(C)cc(=O)[nH]1` showed a z-score of 0.267.
Consider `C/C(=N\O)c1ccc2c3c([nH]c2c1)CCCC3`, for which the z-score is 0.355.
`Brc1[nH]nc2ccccc12` displayed a z-score of 0.227.
Consider `CN(C)CCCN1CC(C(=O)O)CC1=O` (centres undefined), for which the z-score is -0.354.
Molecule `Cc1ccc(NC(=O)NC(=O)CN2C(=O)NC3(CCCCCCC3)C2=O)c(C)c1` displayed a z-score of 0.849.
In turn, `Cc1c(C(O)CN2CCC(C(N)=O)CC2)c2ccccc2n1C` (centres undefined) registered a z-score of 0.802.
In turn, `Cc1ccsc1/C=C1\SC(N2CC(C)OC(C)C2)=NC1=O` (centres undefined) had a z-score of 0.108.
With `COCCNC(=O)CN(C(=O)CCC(=O)Nc1ccccn1)c1ccc(F)cc1` the figure was -0.487; with `O=C(O)COc1ccc2c(c1)CCCC2`, 0.421.
Regarding `C=CCC(NCc1ccco1)c1ccc(OC)cc1OC` (centres undefined), the z-score is -0.246.
The molecule `C/C(=N/NC(=O)c1ccc2c(c1)OCO2)c1cccc(NC(=O)C(C)(C)C)c1` registered a z-score of -0.191.
Under `COC(=O)c1sccc1NC(=O)C1CC2CCC1C2` (centres undefined) stands -0.225.

The values are drawn from PubChem BioAssay AID488969 (Vanderbilt High Throughput Screening Facility, 2010).
